Where two headings read alike, the source gives them in different places.

What all share (experiment): FACS
Assay [1] addresses T1, human Claudin 18.2 (human, UniProt P56856 1-261).
The target in assay [2] is T1, human Claudin 18.2. This is another data set of the same source.
The target of assay [3] is T1, human Claudin 18.2. The source holds these as a separate data set.
The target in assay [4] is T1, human Claudin 18.2. The source holds these as a separate data set.

B1: CLDN18.2-vhh09-1.3 (Fc fusion)
chain: EVQLVESGGGLVQPGGSLRLSCAASRSDLFISIMGWYRQAPGKGREWVSDISRGGKTNYADAVKARFTISRDNSKNTLYLQMNSLRAEDTAVYYCAAQISNPFWGDYWGQGTLVTVSS[sequence of human IgG1 Fc with C220G (EU numbers) omitted]
By EC50 is commonly meant the concentration at which the effect is half-maximal. The low end stands for higher potency in that assay, the high end for lower potency in that assay. Molecule B1 yielded an EC50 with human Claudin 18.2 [1] of 4.71 nM.

B2: sdab-41-hIgG1Fc (Fc fusion)
chain: QVQLVESGGDLVQAGGSLRLSCAASGSPFGFVVMGWYRQAPGKQRDMVATLTSSGATTYADSVKGRFTLSRENAKNTIHLQMNSLKPEDTAVYYCRAVLRSGDNWMAAANEYWGQGTHVTVSS[sequence of human IgG1 Fc with C220G (EU numbers) omitted]
With B2, the EC50 with human Claudin 18.2 [2] came to 3.66 nM.

B3: CLDN18.2-vhh50-2.1 (Fc fusion)
chain: EVQLVESGGGLVQPGGSLRLSCAASGSIYRINAMAWYRQAPGKGREYVSEITSTGNTDYADSVKGRFTISRDNSKNTLYLQMNSLRAEDTAVYYCAAFIIPSVGMFTSRTYWGQGTLVTVSS[sequence of human IgG1 Fc with C220G (EU numbers) omitted]
Regarding B3, in the assay with human Claudin 18.2 [1], the EC50 turned out to be 3.13 nM. This lies in the single-digit nanomolar range.

B4: CLDN18.2-vhh25-1.1 (Fc fusion)
chain: EVQLVESGGGLVQPGGSLRLSCAASGSIYRINNMAWYRQAPGKGRELVSESTSGGNFIYADSVKGRFTISRDNSKNTLYLQMNSLRAEDTAVYYCAAFIIPSVGVFASRTYWGQGTLVTVSS[sequence of human IgG1 Fc with C220G (EU numbers) omitted]
In the assay with human Claudin 18.2 [1], B4 showed an EC50 of 2.28 nM. This EC50 and that of the molecule before are within 1.5-fold of each other.

B5: CLDN18.2-vhh50-1.1 (Fc fusion)
chain: EVQLVESGGGLVQPGGSLRLSCAASGSIYRINAMAWYRQAPGKGREYVSEITSTGNTDYADSVKGRFTISRDNSKNTLYLQMNSLRAEDTAVYYCAAFIIPSVGMFTSRTYWGQGTLVTVSS[sequence of human IgG1 Fc with C220G (EU numbers) omitted]
Molecule B5 gave an EC50 in the assay with human Claudin 18.2 [1] of 2.41 nM.

B6: CLDN18.2-vhh25-2.1 (Fc fusion)
chain: EVQLVESGGGLVQPGGSLRLSCAASGSIYRINNMAWYRQAPGKGRELVSESTSGGNFIYADSVKGRFTISRDNSKNTLYLQMNSLRAEDTAVYYCAAFIIPSVGVFASRTYWGQGTLVTVSS[sequence of human IgG1 Fc with C220G (EU numbers) omitted]
In the assay with human Claudin 18.2 [1], B6 came in with an EC50 of 3.3 nM. This EC50 and that of the molecule before are within 1.5-fold of each other.

B7: CLDN18.2-vhh29-1.1 (Fc fusion)
chain: EVQLVESGGGLIQPGGSLRLSCAASGSIYRINNMAWYRQAPGKGRELVSEITSSGNTLYADSVKGRFTISRDNSKNTLYLQMNSLRAEDTAVYYCAAFIIPSVGVFISRTFWGQGTTVTVSS[sequence of human IgG1 Fc with C220G (EU numbers) omitted]
Molecule B7 registered an EC50 in the assay with human Claudin 18.2 [1] of 2.05 nM.

B8: CLDN18.2-vhh29-3.1 (Fc fusion)
chain: EVQLVESGGGLVQPGGSLRLSCAASGSIYRINNMAWYRQAPGKGRELVSEITSSGNTLYADSVKGRFTISRDNSKNTLYLQMNSLRAEDTAVYYCAAFIIPSVGVFISRTFWGQGTLVTVSS[sequence of human IgG1 Fc with C220G (EU numbers) omitted]
For the molecule B8, it took 1.75 nM to reach a half-maximal effect with human Claudin 18.2 [1] (EC50).

B9: CLDN18.2-vhh50-2.3 (Fc fusion)
chain: EVQLVESGGGLVQPGGSLRLSCAASGSIYRINAMAWYRQAPGKGREWVSEITSTGNTDYADSVKGRFTISRDNSKNTLYLQMNSLRAEDTAVYYCAAFIIPSVGMFTSRTYWGQGTLVTVSS[sequence of human IgG1 Fc with C220G (EU numbers) omitted]
As for B9, the EC50 with human Claudin 18.2 [1] amounted to 3.78 nM. Compared with the last molecule, the EC50 is about 2.2-fold higher.

B10: sdab-9-hIgG1Fc (Fc fusion)
chain: DVQLVESGGGLVQAGGSLTLSCAASRSDLFISIMGWYRQAPGKQRELVADISRGGKTNYADAVKARATISRDNAKNTMYLQMNNVKPEDTAVYYCYAQISNPFWGDYWGRGTQVTVSS[sequence of human IgG1 Fc with C220G (EU numbers) omitted]
Consider B10, for which the EC50 was found to be 1.76 nM with human Claudin 18.2 [3] and 2.72 nM with human Claudin 18.2 [4].

B11: sdab-34-hIgG1Fc (Fc fusion)
chain: QVKLEESGGGLVQTGGSLSLSCVASGSGISINTMGWYRQGPGKQRELVAIVGKYGETNYADSVKGRFTISRDDAKKTVYLRMNSLKPEDTAVYYCNADVLAAGWWSGRVLWGQGTQVTVSS[sequence of human IgG1 Fc with C220G (EU numbers) omitted]
Regarding B11, the EC50 came to 4.37 nM in the assay with human Claudin 18.2 [3] and 5.22 nM with human Claudin 18.2 [4].

B12: sdab-39-hIgG1Fc (Fc fusion)
chain: QVKLEESGGGLAEAGGSLRLSCVASGSIFMIVTMGWYRQAPGKQRELVASITRGGSTNYADFVKGRFTISRDNAKNTVYLQMNSLKPEDTAVYFCNADDVPPLTLTRVIYWGQGTQVTVSS[sequence of human IgG1 Fc with C220G (EU numbers) omitted]
B12 gave an EC50 with human Claudin 18.2 [2] of 1.38 nM.

B13: sdab-44-hIgG1Fc (Fc fusion)
chain: EVQLVESGGGLVQAGGSLRLSCAASGSIYRINTVAWYRQAPGKQRELVAEITSSGNRDYADSVKGRFTISRDNAKNTVYLQMNSLKPEDTAVYSCNAFIIPSVGLFTSRTYWGRGTQVTVSS[sequence of human IgG1 Fc with C220G (EU numbers) omitted]
Take B13: the EC50 with human Claudin 18.2 [2] stood at 1.82 nM; in the assay with human Claudin 18.2 [3] it was 3.57 nM.

B14: sdab-47-hIgG1Fc (Fc fusion)
chain: QVKLEESGGGLVQAGGSLRLSCAVSGNFLNIVTMGWYRQAPGKQRELVATTTRGGTTNYSDSVKGRFTISRDNAKNTVYLQMNSLKPEDTAVYYCNADIIPGFLQQLTVHWGQGAQVTVSS[sequence of human IgG1 Fc with C220G (EU numbers) omitted]
The molecule B14 gave a concentration giving a half-maximal response (EC50) in the assay with human Claudin 18.2 [2] of 2.06 nM.

B15: CLDN18.2-vhh42-2.2 (Fc fusion)
chain: QVQLVESGGGVVQPGGSLRLSCAASGFTFSTYDTNWYRQAPGKGREFVAFINYRGGGATYADSVKDRFTISRDNSKNTLYLQMNSLRAEDTAVYYCAAHERFPMGRPPYDYWGQGTLVTVSS[sequence of human IgG1 Fc with C220G (EU numbers) omitted]
Take B15: it took 1.96 nM to reach a half-maximal effect with human Claudin 18.2 [1] (EC50).

B16: CLDN18.2-vhh42-1.1 (Fc fusion)
chain: QVQLVESGGGVVQPGGSLRLSCAASGRAIGTYDTNWYRQAPGKGREFVAFINYRGGGATYADSVKDRFTISRDNSKNTLYLQMNSLRAEDTAVYYCAAHERFPMGRPPYDYWGQGTLVTVSS[sequence of human IgG1 Fc with C220G (EU numbers) omitted]
In turn, B16 displayed an EC50 with human Claudin 18.2 [1] of 3.79 nM. Compared with the last molecule, the EC50 is about 1.9-fold higher.

B17: CLDN18.2-vhh32-1.2 (Fc fusion)
chain: EVQLVESGGGLVQPGGSLRLSCAASGFTVSSTYMGWFRQAPGKGRELVSRIAGGGQINYADSVKGRFTISRDNSKNTLYLQMNSLRAEDTAVYYCAAHYWMDYWGQGTLVTVSS[sequence of human IgG1 Fc with C220G (EU numbers) omitted]
In the assay with human Claudin 18.2 [1], B17 returned an EC50 of 2.63 nM.

B18: sdab-29-hIgG1Fc (Fc fusion)
chain: QVKLEESGGGLVQAGGSLRLSCAASGSIYRINNMAWYRQIPGKQRELVAEITSSGNTLYADSVKGRFTISMDNAKNTAYLQMNSLKPEDTAVYSCNAFIIPSVGVFISRTFWGRGTQVTVSS[sequence of human IgG1 Fc with C220G (EU numbers) omitted]
For the molecule B18, the EC50 turned out to be 1.46 nM with human Claudin 18.2 [3] and 1.08 nM with human Claudin 18.2 [4].

B19: sdab-48-hIgG1Fc (Fc fusion)
chain: QVKLEESGGGLVQAGGSLGLSCAASGTILHVMVMGWYRQAPGKQRELVATQTIGGTTNYADSVKGRFTISRDNAKNTVYLQMNTLTPGDTAVYYCNADVVYGLARSGNYWGPGTQVTVSS[sequence of human IgG1 Fc with C220G (EU numbers) omitted]
B19 gave an EC50 with human Claudin 18.2 [2] of 2.97 nM.

B20: CLDN18.2-vhh29-2.1 (Fc fusion)
chain: QVQLVESGGGLVKPGGSLRLSCAASGSIYRINNMAWYRQAPGKGRELVSEITSSGNTLYADSVKGRFTISRDNAKNSLYLQMNSLRAEDTAVYYCAAFIIPSVGVFISRTFWGQGTLVTVSS[sequence of human IgG1 Fc with C220G (EU numbers) omitted]
Turning to B20, a half-maximal effect with human Claudin 18.2 [1] (EC50) was put at 2.73 nM.

B21: CLDN18.2-vhh29-2.3 (Fc fusion)
chain: QVQLVESGGGLVKPGGSLRLSCAASGSIYRINNMAWYRQAPGKGREWVSEITSSGNTLYADSVKGRFTISRDNAKNSLYLQMNSLRAEDTAVYYCAAFIIPSVGVFISRTFWGQGTLVTVSS[sequence of human IgG1 Fc with C220G (EU numbers) omitted]
The molecule B21 displayed a concentration for a half-maximal effect (EC50) with human Claudin 18.2 [1] of 1.8 nM. This EC50 is about 1.5-fold lower than that of the molecule before.

B22: sdab-13-hIgG1Fc (Fc fusion)
chain: AVQLVESGGGLAQAGGSLRLSCAASGRILNMASMAWFRQTPGKQRESVALITFGGTTNYADSVKGRFTISRDNAKNTVYLQMNDLKSEDTAVYYCNADVVTGLMRRDVYWGQGTQVIVSS[sequence of human IgG1 Fc with C220G (EU numbers) omitted]
Take B22: the EC50 was determined as 5.41 nM with human Claudin 18.2 [3] and 4.02 nM with human Claudin 18.2 [4].

B23: sdab-18-hIgG1Fc (Fc fusion)
chain: AVQLVESGGGLVQAGGSLRLSCAASGSIFMINAMGWYRQAPGKQRELVADISRGGSTYYADSVKGRFTISRDNDKNTVSLQMNSLKPEDTAAYYCHAHDVPPFVPGGKSYWGQGTQVTVSS[sequence of human IgG1 Fc with C220G (EU numbers) omitted]
B23: the EC50 with human Claudin 18.2 [3] came out at 4.18 nM; in the assay with human Claudin 18.2 [4] it was 3.6 nM.

B24: sdab-49-hIgG1Fc (Fc fusion)
chain: QVQLVESGGDLVQAGGSLRLSCAASGSPFGFVVMGWHRQAPGKQRELVAMLTSSGTTNYADSVKGRFTLSRENTKNTVHLQMNKLKPEDTAVYYCRAVLRSGSDWRAAANEYWGQGTHVTVSS[sequence of human IgG1 Fc with C220G (EU numbers) omitted]
B24: the EC50 in the assay with human Claudin 18.2 [2] is 10.6 nM.

Values taken from patent US20240034784A1 (published 2024).
